Laboratory results: the antibiotic and cytotoxicity screens of Wong et al. (2023)
The list shows a part of the results.

test system: HSkMC (human skeletal muscle cells); experiment: cytotoxicity call (relative viability < 0.9); settings: 10 µM

Structure (SMILES)	cytotoxicity call
Cc1noc(C)c1S(=O)(=O)Nc1ccc2c(c1)C(=O)N([C@H](C)CO)C[C@H](C)[C@@H](CN(C)S(=O)(=O)c1cn(C)cn1)OCCCC[C@H](C)O2	inactive
COc1ccc2c3c([nH]c2c1)[C@@H](CO)N(Cc1ccc(cc1)Cl)C[C@]13CCN(CC1)Cc1nccs1	inactive
COc1ccc(S(=O)(=O)Nc2ccc3c(c2)CC(=O)N([C@@H](C)CO)C[C@H](C)[C@H](CN(C)S(C)(=O)=O)O3)cc1	inactive
COc1ccc(NC(=O)N2C[C@@H](O)COC[C@H]3O[C@H](CC(=O)NC4Cc5ccccc5C4)CC[C@@H]32)cc1	inactive
COc1ccc(CN(C)C[C@H]2Oc3ccc(NC(=O)Nc4ccc(C(F)(F)F)cc4)cc3C(=O)N([C@H](C)CO)C[C@@H]2C)cc1	inactive
Cn1cnc(CCNC(=O)C[C@H]2CC[C@H]3[C@@H](COC[C@@H](O)CN3C(=O)Nc3ccc(C(F)(F)F)cc3)O2)c1	inactive
C[C@@H]1CCCCO[C@@H](CN(C)C)[C@H](C)CN([C@@H](C)CO)C(=O)c2cc(NC(=O)Nc3ccc(C(F)(F)F)cc3)ccc2O1	inactive
COc1ccc(CN(C)C[C@@H]2Oc3c(NS(=O)(=O)c4cn(C)cn4)cccc3C(=O)N([C@@H](C)CO)C[C@@H]2C)cc1	inactive
Cc1noc(C)c1NC(=O)Nc1ccc2c(c1)C(=O)N([C@@H](C)CO)C[C@@H](C)[C@@H](CN(C)Cc1ccc3c(c1)OCO3)OCCCC[C@H](C)O2	inactive
C[C@H]1CCCCO[C@@H](CN(C)Cc2ccc(C(F)(F)F)cc2)[C@@H](C)CN([C@@H](C)CO)C(=O)c2cc(NS(=O)(=O)c3ccc(F)cc3)ccc2O1	inactive
C[C@@H]1CCCCO[C@@H](CN(C)Cc2ccc3c(c2)OCO3)[C@H](C)CN([C@@H](C)CO)C(=O)c2cc(NS(=O)(=O)c3ccccc3)ccc2O1	inactive
COCC(=O)N(C)C[C@@H]1Oc2cc(C#Cc3cccnc3)ccc2S(=O)(=O)N([C@H](C)CO)C[C@@H]1C	inactive
C[C@@H]1CN([C@@H](C)CO)C(=O)Cc2cc(NS(=O)(=O)c3cccs3)ccc2O[C@@H]1CN(C)S(=O)(=O)c1cn(C)cn1	inactive
CC(C)(C)S(=O)N1Cc2cc(C(=O)Nc3ccc(-c4ccccc4)cc3)nc(-c3cccc(C#CCC4CCCC4)c3)c2[C@@H]1CCO (stereo not given in full)	inactive
COc1ccc(S(=O)(=O)N(C)C[C@@H]2Oc3ccc(NS(=O)(=O)c4ccc(C)cc4)cc3C(=O)N([C@H](C)CO)C[C@H]2C)cc1	inactive
CC(C)NC(=O)Nc1ccc2c(c1)CC(=O)N([C@H](C)CO)C[C@H](C)[C@H](CN(C)S(=O)(=O)c1ccccc1)O2	inactive
C[C@H]1CCCCO[C@@H](CN(C)Cc2ccc(C(F)(F)F)cc2)[C@@H](C)CN([C@@H](C)CO)C(=O)c2cc(NC(=O)Nc3ccc4c(c3)OCO4)ccc2O1	inactive
CC(C)CC#Cc1ccc2c(c1)O[C@H](CN(C)Cc1cncnc1)[C@@H](C)CN([C@@H](C)CO)S2(=O)=O	inactive
C[C@@H]1CN([C@@H](C)CO)C(=O)c2cc(-c3cccnc3)cnc2O[C@H]1CN(C)C(=O)Nc1ccc2c(c1)OCO2	inactive
CCCCNc1ccc(C(=O)OCCOCCOCCOCCOCCOCCOCCOCCOCCOC)cc1	inactive

Structure (SMILES)	cytotoxicity call
COc1ccc(NC(=O)N(C)C[C@@H]2Oc3ncc(C#C[C@H](C)O)cc3C(=O)N([C@@H](C)CO)C[C@H]2C)cc1	inactive
C[C@@H]1CCCCO[C@H](CN(C)S(=O)(=O)c2ccc(Cl)cc2)[C@@H](C)CN([C@H](C)CO)C(=O)c2cc(NC(=O)c3ccccc3)ccc2O1	inactive
Nc1ccccc1S(N)(=O)=O	inactive
C=CCC[C@@H](Cc1ccc(F)cc1)C(=O)OC[C@@H](NC(=O)[C@@H](CC=C)CC(=O)N[C@@H](CO)Cc1ccccc1)C(C)(C)C	inactive
CCNC(=S)NCC1CC1	inactive
CC(C)NC(=O)Nc1cccc2c1O[C@@H](CN(C)C(=O)Nc1ccc3c(c1)OCO3)[C@@H](C)CN([C@@H](C)CO)C2=O	inactive
C[C@@H]1CCCCO[C@@H](CN(C)CC2CCCCC2)[C@@H](C)CN([C@H](C)CO)C(=O)c2cc(NC(=O)C3CCCCC3)ccc2O1	inactive
Nc1ncn([C@H]2C[C@H](O)[C@@H](CO)O2)c(=O)n1	inactive
CC(C)(O)[C@H]1CC[C@@](C)([C@H]2[C@@H](O)C[C@@]3(C)[C@@H]4C[C@H](O[C@@H]5O[C@H](CO)[C@@H](O)[C@H](O)[C@H]5O)[C@H]5C(C)(C)[C@@H](O[C@@H]6OC[C@@H](O)[C@H](O)[C@H]6O)CC[C@@]56C[C@@]46CC[C@]23C)O1	inactive
C[C@@H]1CN([C@H](C)CO)C(=O)c2cc(NC(=O)Nc3ccccc3)ccc2O[C@@H]1CN(C)CC1CCCCC1	inactive
COC(=O)[C@@H]1N2C(=O)[C@@H](N3C[C@](C)(OC)O[C@@H](Cc4ccccc4)[C@H]3/C=C/C3CC3)[C@H]2SC1(C)C	inactive
Cc1ccc(S(=O)(=O)Nc2ccc3c(c2)C(=O)N(C)[C@H]2CC[C@@H](CC(=O)NCCc4ccncc4)O[C@@H]2CO3)cc1	inactive
O=C(OC1Cc2c(O)cc(O)cc2OC1c1cc(O)c(=O)c2c(O)c(O)cc(C3Oc4cc(O)cc(O)c4CC3O)c2c1)c1cc(O)c(O)c(O)c1 (stereo not given)	inactive
Cc1ccc(S(=O)(=O)Nc2ccc3c(c2)C(=O)N([C@H](C)CO)C[C@H](C)[C@H](CN(C)C(=O)CCC(F)(F)F)OCCCC[C@@H](C)O3)cc1	inactive
CC(C)NC(=O)Nc1ccc2c(c1)C(=O)N([C@H](C)CO)C[C@H](C)[C@@H](CN(C)C(=O)Nc1cccc3ccccc13)OCCCC[C@H](C)O2	inactive
C[C@H](CO)N1C[C@H](C)[C@H](CN(C)S(=O)(=O)c2ccccc2)Oc2c(NC(=O)c3cnccn3)cccc2C1=O	inactive
C=CCOC(=O)[C@@H]1[C@H]2C(=O)O[C@H](c3ccccc3)[C@H](c3ccccc3)N2[C@H](c2ccc(OCCOC(=O)[C@H]3C[C@H]4C(=O)N[C@@H](CC(C)C)C(=O)N4[C@H]3c3cccc(OCCO)c3)cc2)[C@@]12C(=O)Nc1ccccc12	inactive
C[C@@H]1CN([C@@H](C)CO)C(=O)c2cc(NC(=O)Nc3ccc4c(c3)OCO4)ccc2O[C@@H](C)CCCCO[C@@H]1CN(C)S(=O)(=O)c1ccccc1	inactive
N[C@H]1CCC[C@@H]1Cc1ccc(F)cc1	inactive
C[C@@H]1CCCCO[C@@H](CN(C)Cc2ccccc2)[C@H](C)CN([C@@H](C)CO)C(=O)c2cc(NC(=O)NC3CCCCC3)ccc2O1	inactive
